# Data published in PMC4336329 (PLoS ONE, 2015).
# Out of some 310,000 compounds screened, about 2,200 (0.71%) showed an effect of 50% or more. The effect is printed as a negative number. This is one part of the list.
# Target: human ether-à-go-go-related gene (hERG) potassium channel (human, UniProt Q12809)
# Experiment: primary screen, population patch clamp on CHO cells stably expressing hERG
# Sequence of human ether-à-go-go-related gene (hERG) potassium channel (Q12809 whole entry, looked up): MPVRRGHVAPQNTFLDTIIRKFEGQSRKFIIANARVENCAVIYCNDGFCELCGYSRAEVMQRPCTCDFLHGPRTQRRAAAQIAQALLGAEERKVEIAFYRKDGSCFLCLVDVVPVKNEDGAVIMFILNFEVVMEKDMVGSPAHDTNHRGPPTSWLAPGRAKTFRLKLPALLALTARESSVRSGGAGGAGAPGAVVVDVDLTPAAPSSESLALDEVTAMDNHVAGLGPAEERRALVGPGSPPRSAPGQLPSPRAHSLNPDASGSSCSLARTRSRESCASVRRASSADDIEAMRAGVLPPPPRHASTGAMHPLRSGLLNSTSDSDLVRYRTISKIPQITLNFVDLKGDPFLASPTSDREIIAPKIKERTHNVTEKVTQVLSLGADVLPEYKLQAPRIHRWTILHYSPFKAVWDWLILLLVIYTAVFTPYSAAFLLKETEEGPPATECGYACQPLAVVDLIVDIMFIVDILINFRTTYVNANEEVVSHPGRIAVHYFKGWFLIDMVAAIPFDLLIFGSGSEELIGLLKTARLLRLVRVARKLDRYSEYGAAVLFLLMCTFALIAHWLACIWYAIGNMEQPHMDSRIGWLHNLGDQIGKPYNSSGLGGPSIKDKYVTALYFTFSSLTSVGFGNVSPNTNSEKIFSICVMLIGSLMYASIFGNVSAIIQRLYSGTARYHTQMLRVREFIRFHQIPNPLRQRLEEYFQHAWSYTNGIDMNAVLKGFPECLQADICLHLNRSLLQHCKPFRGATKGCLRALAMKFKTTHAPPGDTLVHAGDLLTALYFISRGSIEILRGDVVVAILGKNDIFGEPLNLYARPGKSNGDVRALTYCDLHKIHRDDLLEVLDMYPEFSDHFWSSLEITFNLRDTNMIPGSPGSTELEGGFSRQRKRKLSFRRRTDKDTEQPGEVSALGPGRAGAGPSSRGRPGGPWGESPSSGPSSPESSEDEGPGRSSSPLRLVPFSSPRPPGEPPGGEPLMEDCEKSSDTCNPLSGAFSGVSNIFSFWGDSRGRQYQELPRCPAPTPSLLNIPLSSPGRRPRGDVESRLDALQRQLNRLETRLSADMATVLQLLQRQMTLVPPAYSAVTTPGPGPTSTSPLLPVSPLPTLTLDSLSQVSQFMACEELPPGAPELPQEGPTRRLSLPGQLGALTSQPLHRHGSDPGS
row,Structure (SMILES),"hERG current change (%, negative = inhibition) at 1uM [%]"
1,COc1ccc(CNC(=O)C2CCN(S(=O)(=O)c3ccc4c(c3)CC(C)N4C(=O)C3CC3)CC2)cc1 (stereo not drawn),11.3
2,CCOc1ccc(/C(C)=N/NC(=O)c2nnn(-c3nonc3N)c2-c2cccs2)cc1,13.7
3,Cc1cccc([C@@H]2[C@@H]3C(=O)N(Cc4ccccc4)C(=O)[C@@H]3[C@]3(Cc4ccc(Cl)cc4)C(=O)N(c4cccc(Cl)c4)C(=O)N23)c1,2.98
4,COc1ccc(NC(=O)/C(=C/c2ccc(OC(C)=O)c(OC)c2)NC(C)=O)cc1,9.71
5,Cc1oc2c(CN3CCCCC3)c(O)ccc2c(=O)c1-c1ccc(Cl)cc1,-7.86
6,Cc1noc(C)c1COc1ccccc1C(=O)N1CCN(S(=O)(=O)c2ccccc2C(F)(F)F)CC1,6.15
7,CCOc1nc(NC2CCCCC2)nc(NC(C)(C)C)n1,2.49
8,CC[C@H](C)[C@@H](C(=O)NCCCCCCCCCCC(=O)N1CCN(C(=O)OC(C)(C)C)CC1)n1cc(CCCCCNC(=O)OC(C)(C)C)nn1,8.67
9,NCC(=O)c1cccc2ccc[n+]([O-])c12,17.3
10,O=[N+]([O-])c1ccc(-c2nc(NCc3ccccc3)c3ccccc3n2)cc1,8.85
11,COc1ccc(-c2csc(Cc3nnc(N4CCOCC4)n3-c3ccccc3)n2)cc1OC,-6.32
12,CCOC(=O)C1NN=C(C(=O)c2ccccc2)C1c1ccccc1 (stereo not drawn),5.62
13,Cl.NCCCCCc1nnc(SC/C=C/c2ccccc2)o1,-5.01
14,COC1CCN(Cc2cn(Cc3ccccc3)nc2-c2cc3ccccc3o2)CC1,1.32
15,O=C(OCC(=O)N(C1CCCCC1)C1CCCCC1)c1cnccn1,6.31
16,CC(=O)c1cnc2scnn2c1=O,15.6
17,O=C(Nc1ccccc1)N1CC=C(c2ccccc2)CC1,2.74
18,COc1cc2c(cc1OC)C(c1ccc(N(C)C)cc1)CC(=O)N2 (stereo not drawn),5.18
19,CCN(CC)S(=O)(=O)c1ccc(NC(=O)CCN2C(=O)C3CC=CCC3C2=O)cc1 (stereo not drawn),8.12
20,S=c1[nH]cc(-c2ccccc2)n1-c1ccccc1Cl,15
21,O=C(O)c1ccc2c(=O)n(-c3ccccc3F)c(=S)[nH]c2c1,4.52
22,O=C(CCc1nc2ccccc2c(=O)[nH]1)NCCN1C(=O)S/C(=C\c2ccccc2Cl)C1=O,2.28

row,Structure (SMILES),"hERG current change (%, negative = inhibition) at 1uM [%]"
1,Brc1csc(C=Nc2ccc3c(c2)OCCOCCOCCOCCO3)c1,-78.1
2,CCCCCCCc1nc2nc(C)c(Br)c(=O)n2[nH]1,16.2
3,CCCCCCn1c(=O)c(C(=O)Nc2c(C)n(C)n(-c3ccccc3)c2=O)c(O)c2ccccc21,12.9
4,CC(C)(C)NC(=O)C(=O)NCc1ccncc1,10.4
5,Cc1ccc2oc(NC(=O)N3CCOCC3)cc(=O)c2c1,12.6
6,Cc1nonc1NC(=O)CSc1nnnn1-c1ccccc1,18.5
7,O=C(CN(Cc1ccc(Br)cc1)S(=O)(=O)c1ccccc1)NCC1CCCO1 (stereo not drawn),11.8
8,CCCCN(C(=O)c1ccc(S(=O)(=O)N(CC)CC)cc1)c1c(N)n(CCC)c(=O)[nH]c1=O,16.5
9,C/C(NC(=O)c1ccccc1F)=C1\C(=O)C[C@@H]2[C@H]1C2(C)C,-3.44
10,Cc1cccn2c(CN3CCCC(c4ccccc4)C3)c(C(=O)N3CCOCC3)nc12 (stereo not drawn),-53.3
11,COc1ccc(NC(=O)NNC(=O)C(C)Oc2ccc3ccccc3c2)cc1OC (stereo not drawn),17.9
12,O=c1nc(N2CCOCC2)ccn1Cc1ccc(Br)cc1,11.3
13,CCCC1=C(C(=O)OCC)C(c2ccccc2OCC)NC(=O)N1C (stereo not drawn),2.52
14,CCN(CC)C1CCN(C(=O)c2ccc(OC3CCN(CCc4ccccc4)CC3)cc2)C1 (stereo not drawn),16
15,Cc1nnc(Sc2cc(C(=O)NC3CC3)c3ccccc3n2)s1,3.64
16,CC(C)(C)c1nc2ccccc2c2nnc(SCC(=O)Nc3nccs3)n12,17.3
17,Cc1cc(C(=O)N/N=C/c2ccccc2Br)no1,7.3
18,CC12CN3C(O)C(C)(C1)CC(C)(C2)C3O (stereo not drawn),4.88
19,CC(=C/C(=O)O)/C=C/c1ccc(Cl)o1,5.53
20,CCOC(=O)CSc1snnc1C,19.2
21,CCCCS(=O)CC(COc1ccc(Cl)cc1)OC(=O)c1ccccc1 (stereo not drawn),-1.33
22,O=C(COC(=O)c1ccccc1C(=O)N1CCN(c2ccc(F)cc2)CC1)NCc1ccccc1,-32.7

row,Structure (SMILES),"hERG current change (%, negative = inhibition) at 1uM [%]"
1,CCOC(=O)c1cnn(-c2ccccc2)c1NC(=O)c1ccccc1C,6.89
2,CC(=O)c1ccc(NC(=O)Cc2ccsc2)cc1,14.1
3,C=CCNC(=O)c1cc(-c2cccnc2)nc2ccccc12,3.45
4,O=C1NCCN(Cc2cccc(Oc3ccccc3)c2)C1CC(=O)N1CCCO1 (stereo not drawn),12.1
5,COc1ccc(OC)c(NC(=O)C2CC(=O)N(c3ccccc3)C2)c1 (stereo not drawn),7.94
6,COc1ccc(CCNC(=O)Cn2c(=O)n(-c3ccc(F)cc3F)c(=O)c3sccc32)cc1OC,6.36
7,Cc1cccc(NC(=O)Cn2cnc3ccc(S(=O)(=O)N4CCC(C)CC4)cc3c2=O)n1,5
8,Cc1cccc(OCC(=O)N2CCC(N3CCOCC3)CC2)c1,8.35
9,CCN(CC)CCSc1nnc2c3cc(C)ccc3n(Cc3ccccc3)c2n1,-81.6
10,CCOc1ccc(CCNC(=O)c2ccc(CS(=O)Cc3ccc(Cl)cc3)o2)cc1OCC (stereo not drawn),2.83
11,C/C(=N/Oc1nc(C)cc(C)n1)c1ccc(F)cc1,8.49
12,CCOC(=O)Nc1cccc(OCC(=O)Nc2ccccc2OCC)c1,-5.15
13,COc1cc2c(cc1OC)C(COc1cccc(C(F)(F)F)c1)NCC2 (stereo not drawn),3.04
14,O=C(Cc1cccc(NC(=O)C2CCCN(C(=O)C3CCC3)C2)c1)Nc1cccc(C(=O)N2CCCC2)c1 (stereo not drawn),9.32
15,CN(C)c1nc2c(c(N)nn2-c2ccc(Cl)cc2)c(=O)o1,0.233
16,COc1ccc2[nH]c(=O)c(CN(C(=O)C3CCCO3)c3ccc(C)c(C)c3)cc2c1 (stereo not drawn),-0.124
17,CSc1ccc(Cl)c(C(=O)NCCOc2ccccc2)c1,15
18,COc1cccc(C(=O)NCc2n[nH]c(=S)n2-c2cccc(C)c2)c1,16.4
19,CCOc1ccc(C2C([N+](=O)[O-])=C(C)N(C)C(=O)N2C)cc1OC (stereo not drawn),5.29
20,COc1ccc2c(c1OC)C(=O)OC2N1C(=O)CC[C@H]1C(=O)Nc1ccc2c(c1)OCO2 (stereo partly drawn),8.36
21,O=C(Nc1ccc(Cl)cc1)c1nc[nH]c1C(=O)NCc1ccccc1,10.2
22,Cc1cc(C(=O)N(CCC#N)Cc2cccs2)no1,13.7

row,Structure (SMILES),"hERG current change (%, negative = inhibition) at 1uM [%]"
1,CCCCc1c(C)c2ccc(OC)c(/C(C)=N\O)c2oc1=O,10.7
2,COc1ccc(/C=N/Nc2ncc(-c3ccccc3)cn2)c(OC)c1,20.3
3,CCOC(=O)N1CCC(NC(=O)CN(c2ccc(C(C)C)cc2)S(=O)(=O)c2c(C)nn(C)c2C)CC1,10.4
4,COc1ccc(NC(=O)CC2C(=O)N(C)C(=S)N2Cc2ccco2)cc1 (stereo not drawn),8.81
5,COC(=O)C1=C(C)NC(=O)C1(NS(=O)(=O)c1ccc(NC(C)=O)cc1)C(F)(F)F (stereo not drawn),8.28
6,Nc1nonc1-c1nc2ccccc2n1CCC(=O)O,8.16
7,COC(=O)c1ccc(NC(=O)C2C3C=CC(C3)C2C(=O)O)cc1 (stereo not drawn),4.75
8,CCc1ccc(NC(=S)NC(=O)CC(C)C)cc1,16.8
9,CC1CCCC(NC(=O)CNCc2ccccc2F)C1C.O=C(O)C(=O)O (stereo not drawn),1.63
10,Cc1oc2c(CN3CCCC(C)C3)c(O)ccc2c(=O)c1-c1ccccc1 (stereo not drawn),3.89
11,Cc1cc(C(=O)N/N=C/c2cccc([N+](=O)[O-])c2O)n[nH]1,1.97
12,Cc1cccc(C(=O)NCC(=O)N2CCN(c3ccc(Cl)cc3)CC2)c1,4.04
13,C=CCNC(=O)C1CCN(c2cc(C)nc(-c3ccccc3)n2)CC1,-12.2
14,CC(C)c1ccc(NC(=O)C2CCN(C(=O)[C@@H]3Cc4ccccc4CN3)CC2)cc1,-40.1
15,Cc1c(Cl)cccc1NC(=O)C1CCCCC1,9.6
16,O=C(CCc1n[nH]c(=O)[nH]c1=O)N1CCOCC1,9.76
17,COC(=O)c1ccc(NC(=O)c2ccc(F)cc2)o1,9.39
18,CC(C)C[C@H](NC(=O)[C@@H]1O[C@H]1C(=O)O)C(=O)NCCCCN=C(N)N,9.26
19,COC(=O)c1[nH]c2ccccc2c1NC(=O)C(C)N1CCOCC1 (stereo not drawn),9.91
20,Cc1ccc(N2CC(C(=O)N3CCC(C(=O)Nc4ccc(Br)cc4)CC3)CC2=O)cc1 (stereo not drawn),-3.6
21,COc1cc(C(=O)OCC(=O)c2c(N)n(C)c(=O)n(C)c2=O)ccc1OCCC(C)C,14.4
